Laboratory results reported in PubChem BioAssay AID686971 (National Center for Advancing Translational Sciences (NCATS), 2013).
In all, about 360,000 compounds went through this assay and about 7,500 (2.1%) were called active. The shares of active, inactive and inconclusive entries below differ from those in the screen. Calls follow the shape of the dose curve; as a rule, active = well fitted cell-killing curve with a large enough effect; inconclusive = small, poorly fitted or top-dose-only effect, or effect the other way, or another doubt; inactive = no such curve, though single readings can be large or run the other way. No potency is given beside an inconclusive call; the fits are too rough.

Experiment: qHTS for induction of synthetic lethality in tumor cells producing 2HG: qHTS for the HT-1080-IDH1KD cell line;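 as to activity, negative = toxicity: 0% = DMSO wells and -100% = cell-free medium wells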
Conditions: HT-1080 IDH1 knockdown viability, ATP luminescence, 48 h; activity, negative = toxicity: at 46.1 µM (top of the series) unless noted
How it was run: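 In this qHTS, HT-1080 cells depleted of IDH1 are exposed for 48 h at 37 °C to compound titrations. Toxicity is scored from CellTiter-Glo luminescence, with DMSO as full viability and medium alone as none.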
Potency is read from the fitted curve at half-maximal effect; tags tell the direction and shape of the fitted curve.

Row | Structure (SMILES) | Potency | activity, negative = toxicity
1 | COc1cc(/C=N/N2CCOCC2)ccc1OCc1ccccc1 | inconclusive [cytotoxic, single point] | –
2 | Brc1ccsc1/C=N/Nc1ccccc1 | inconclusive [cytotoxic, single point] | –
3 | Cc1cccc(OCCn2c(=S)[nH]c3ccccc32)c1 | inconclusive [cytotoxic, single point] | –
4 | CCOCCCn1c(=N)c(C(=O)NCc2ccc3c(c2)OCO3)cc2c(=O)n3cccc(C)c3nc21 | inconclusive [cytotoxic, single point] | –
5 | Cn1nc(C(C)(C)C)cc1NC(=O)Nc1cc(Cl)cc(Cl)c1 | inconclusive [cytotoxic, single point] | –
6 | Cc1ccc(S(=O)(=O)/N=C2\C=C(NS(=O)(=O)c3ccccc3)C(=O)c3ccccc32)cc1 | inconclusive [cytotoxic, partial curve] | –
7 | CCCc1nc2ccc(Cl)cn2c1Cc1ccc(C)cc1 | inconclusive [cytotoxic, single point] | –
8 | CCCOc1ccc2c3c(c(=O)oc2c1OCCC)CCC3 | inconclusive [cytotoxic, single point] | –
9 | COc1cc2c(c(OC)c1OC)-c1ccc(NCc3ccccc3)c(=O)cc1C(NC(C)=O)CC2 (stereo not drawn) | active: 2.31 µM | –
10 | OC(c1cccc(Cl)c1)c1nc(-c2csc3ccccc23)cs1 (stereo not drawn) | inconclusive [cytotoxic, single point] | –
11 | Cc1cc(NC(=O)c2ccc(F)cc2)n(C)n1 | – | inactive: -2.96%
12 | CC1CCN(S(=O)(=O)c2cc(C(=O)N3CCN(c4ccccc4)CC3)ccc2Br)CC1 | inconclusive [cytotoxic, partial curve] | –
13 | COc1cc(C(=O)Oc2cccc(Nc3ncnc4ccccc34)c2)cc(OC)c1OC | – | inactive: -9.48%
14 | C#CCOCCOCCOCCNc1nc(N2CCN(C(=O)C(Cc3cc4ccccc4[nH]3)n3cc(C(N)Cc4ccc(O)cc4)nn3)CC2)nc(N2CCN(C(=O)C(Cc3cc4ccccc4[nH]3)n3cc(C(N)Cc4ccc(O)cc4)nn3)CC2)n1 (stereo not drawn) | inconclusive [cytotoxic, single point] | –
15 | Cc1ccnc2nc(C(=O)NCCc3ccc(F)cc3)nn12 | – | inactive: -2.06%
16 | COc1ccc(-c2cn[nH]c2-c2ccc(O)cc2O)cc1OC | – | inactive: -1.19%
17 | CCOC(=O)c1[nH]c(C)c(CN(C(C)=O)c2ccc(OCC)cc2)c1C | inconclusive [cytotoxic, single point] | –
18 | COc1ccc(/C=N/n2c(C)nc3sc(C)c(C)c3c2=O)cc1 | – | inactive: 21.9%
19 | COc1ccccc1NS(=O)(=O)c1ccc(C)c(C(=O)Nc2cc(C)on2)c1 | – | inactive: -0.642%
20 | Cc1cccc(C)c1Nc1nnc(SC/C(O)=C(\C#N)c2nc3ccccc3[nH]2)s1 | – | inactive: -2.54%
21 | O=c1ccc(Cl)cn1Cc1ccccc1F | – | inactive: 2.8%
22 | COc1ccc(NCc2ccc([N+](=O)[O-])s2)cc1 | – | inactive: -24.5%
23 | COc1cccc(CNc2nc3cc(-c4ccc(F)cc4)sc3c(=O)n2C)c1OC | inconclusive [cytotoxic, partial curve] | –
24 | N#Cc1c(N)n(C2CCCCC2)c2nc3ccccc3nc12 | inconclusive [cytotoxic, single point] | –

Row | Structure (SMILES) | Potency | activity, negative = toxicity
25 | CC(=O)c1ccc2c3c(ccc(O)c13)CC2 | inconclusive [cytotoxic, partial curve] | –
26 | CC(C)Cn1c(N)c(C(=O)NCCN2CCOCC2)c2nc3ccccc3nc21 | – | inactive: 2.56%
27 | CN(C)CCNc1ccc(CO)c2oc3ccc(O)cc3c(=O)c12 | active: 20.6 µM | –
28 | Cc1cccn2c(=O)nc(SCC(=O)N3CCN(c4ccccc4)CC3)nc12 | – | inactive: -0.553%
29 | O=c1c2ccccc2nc(/C=C/c2ccc(Br)cc2)n1CCCO | inconclusive [cytotoxic, single point] | –
30 | COc1ccc(-c2c(C)nc(N)nc2-c2ccc(OC)cc2O)cc1 | – | inactive: -12.2%
31 | NCC12CC3CC(C1)CC(c1ccc(Br)cc1)(C3)C2 | inconclusive [cytotoxic, single point] | –
32 | COc1cccc(NC(=O)CSc2nnnn2C2CCCC2)c1 | inconclusive [cytotoxic, full curve] | –
33 | COC(=O)c1sccc1NC(=O)CC1C(=O)NCCN1C(=O)c1ccc(N(C)C)cc1 (stereo not drawn) | – | inactive: 1.78%
34 | CCOC(=O)c1sc(NC(=O)CC(C)c2ccccc2)nc1C (stereo not drawn) | active: 9.2 µM | –
35 | CCOC(=O)[C@]12CCCC=C1N(Cc1cccc3ccccc13)C(=O)[C@H](CC(=O)NCc1ccc(OC)c(OC)c1)C2 | inconclusive [cytotoxic, partial curve] | –
36 | CS(=O)(=O)c1ccc2nc(NC(=O)c3ccc(S(=O)(=O)NCC4CCCO4)cc3)sc2c1 (stereo not drawn) | – | inactive: -9.29%
37 | Cc1ccc(C(=O)N/N=C\c2ccc(OC(=O)c3cccc(F)c3)cc2)cn1 | – | inactive: 8.57%
38 | CCCCNS(=O)(=O)c1ccc2nc(SCC(=O)c3ccc(C#N)cc3)[nH]c2c1 | – | inactive: -5.93%
39 | CN(C)c1ccc(CNCCC(Cc2ccccc2)c2ccco2)cc1 (stereo not drawn) | active: 23.1 µM | –
40 | CCC(C)(C(=O)NC1CCCC1)N(CC1CCCO1)C(=O)c1ccc2c(c1)OCO2 (stereo not drawn) | – | inactive: 14.3%
41 | COc1ccc(-c2[nH]ncc2/C=N/NC(=O)c2cccc([N+](=O)[O-])c2)cc1OC | – | inactive: 3.62%
42 | NCC12CC3CC(C1)CC(c1ccc(Cl)cc1)(C3)C2 | inconclusive [cytotoxic, single point] | –
43 | O=C(NCC1CCCN1S(=O)(=O)c1cccs1)C(=O)Nc1ccccc1F (stereo not drawn) | – | inactive: -2.88%
44 | O=c1c2ccccc2cnn1-c1nc2ccccc2[nH]1 | active: 3.66 µM | –
45 | O=C(c1ccc(S(=O)(=O)c2ccc(F)cc2)c([N+](=O)[O-])c1)N1CCCCCC1 | inconclusive [cytotoxic, single point] | –
46 | NC(=O)c1c(-c2ccc(Cl)cc2Cl)csc1NC(=O)Cc1ccccc1 | inconclusive [cytotoxic, full curve] | –
47 | O=C(Nc1ccccc1)C1CCCN(C(=O)c2ccc(Cl)cc2)C1 (stereo not drawn) | – | inactive: -23.7%
48 | CN(CC(=O)Nc1ccc(Cl)cc1)CC(=O)Nc1cccc(Br)c1 | inconclusive [cytotoxic, single point] | –
